According to PubChem BioAssay AID1347165 (National Center for Advancing Translational Sciences (NCATS), 2019):
The campaign covered roughly 220,000 compounds. About 5,700 (2.6%) were called active. The inconclusive results got no clear call from the source; some entries with a clear call stand among them for comparison. Calls follow the shape of the dose curve; as a rule, active = well fitted inhibition curve with a large enough effect; inconclusive = small, poorly fitted or top-dose-only effect; inactive = no such curve, though single readings can be large or run the other way. A potency beside an inconclusive call is a rough fit, not a confirmed value.

These compounds were tested against Lysine-specific demethylase 5B (Homo sapiens) (UniProt Q9UGL1) (assay: Primary screen for KDM5B Histone Demethylases FDH-coupled qHTS). Conditions: FDH-coupled NADH fluorescence (FDH is formaldehyde dehydrogenase); series mostly up to 57.7 µM.
Chain of UniProt Q9UGL1 (Q9UGL1 whole entry, looked up): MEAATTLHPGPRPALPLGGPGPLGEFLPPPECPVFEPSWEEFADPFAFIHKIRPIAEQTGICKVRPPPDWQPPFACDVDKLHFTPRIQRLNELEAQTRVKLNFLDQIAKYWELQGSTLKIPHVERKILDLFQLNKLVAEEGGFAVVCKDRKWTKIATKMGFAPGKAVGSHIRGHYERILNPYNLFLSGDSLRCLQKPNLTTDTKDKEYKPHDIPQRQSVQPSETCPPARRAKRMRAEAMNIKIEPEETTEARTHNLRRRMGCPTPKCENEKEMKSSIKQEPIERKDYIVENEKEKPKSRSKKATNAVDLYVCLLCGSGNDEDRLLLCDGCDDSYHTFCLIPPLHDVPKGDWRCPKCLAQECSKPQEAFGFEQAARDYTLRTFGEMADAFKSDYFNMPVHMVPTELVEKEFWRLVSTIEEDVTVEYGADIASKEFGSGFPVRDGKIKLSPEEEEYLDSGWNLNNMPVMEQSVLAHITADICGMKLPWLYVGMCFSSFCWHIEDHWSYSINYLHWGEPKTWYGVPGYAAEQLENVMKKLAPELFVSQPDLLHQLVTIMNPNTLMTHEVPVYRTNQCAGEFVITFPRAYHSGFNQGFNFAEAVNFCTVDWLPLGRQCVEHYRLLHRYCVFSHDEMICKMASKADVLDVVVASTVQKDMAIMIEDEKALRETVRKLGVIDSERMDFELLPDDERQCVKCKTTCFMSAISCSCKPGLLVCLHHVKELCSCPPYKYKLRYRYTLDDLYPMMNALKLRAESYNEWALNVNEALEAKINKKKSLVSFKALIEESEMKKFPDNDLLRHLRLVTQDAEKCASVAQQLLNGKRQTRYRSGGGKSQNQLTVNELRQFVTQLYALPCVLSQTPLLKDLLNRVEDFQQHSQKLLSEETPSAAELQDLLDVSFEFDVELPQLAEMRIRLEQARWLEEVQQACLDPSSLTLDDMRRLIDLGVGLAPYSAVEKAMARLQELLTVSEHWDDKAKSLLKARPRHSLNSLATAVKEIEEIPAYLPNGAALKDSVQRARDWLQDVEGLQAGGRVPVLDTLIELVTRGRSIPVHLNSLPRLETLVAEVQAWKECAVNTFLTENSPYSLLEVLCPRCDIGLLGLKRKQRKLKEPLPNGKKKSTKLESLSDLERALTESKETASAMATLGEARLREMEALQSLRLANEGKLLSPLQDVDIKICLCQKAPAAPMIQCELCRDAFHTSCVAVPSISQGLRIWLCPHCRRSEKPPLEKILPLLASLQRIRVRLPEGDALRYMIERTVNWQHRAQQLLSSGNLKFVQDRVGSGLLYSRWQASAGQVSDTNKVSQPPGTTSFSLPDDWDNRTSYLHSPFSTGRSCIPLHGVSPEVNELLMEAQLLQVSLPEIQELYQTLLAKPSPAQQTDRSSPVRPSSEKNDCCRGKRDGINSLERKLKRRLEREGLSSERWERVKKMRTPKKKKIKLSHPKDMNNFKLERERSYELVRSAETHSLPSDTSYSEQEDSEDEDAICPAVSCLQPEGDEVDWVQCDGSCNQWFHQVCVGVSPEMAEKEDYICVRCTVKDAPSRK
Outline: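 Coupled FDH/NAD⁺ fluorescence readout. KDM5BΔAP 200 nM final; compound titration, 10 min RT preincubation; substrate mix 12.5 µM H3K4me3, 25 µM 2-OG, 50 µM Fe(II), 100 µM ascorbate, 0.25 mM NAD⁺, 0.25 U/mL FDH; ΔRFU over 30 min.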
Also: nearly all actives have a fitted effect of over 70% in size.
Potency is read from the fitted curve at half-maximal effect; tags tell the direction and shape of the fitted curve.

SMILES	Potency
CO[C@@H]1COCC[C@H]1NC(=O)CCc1ccc(-c2ccc(Cl)cc2)[nH]1	active: 28.2 µM
Cc1ccc(-n2ncc3c(NCc4ccccc4)ncnc32)cc1Cl	inconclusive: 14.1 µM [inhibitor, partial curve, poor fit]
Cc1cccc(N(C)C(=O)Cn2nc(-c3ccc(F)cc3)ccc2=O)c1	inactive
CCCCOc1ccc(C(=O)N(Cc2ccc(N(C)C)cc2)Cc2ccco2)cc1	inconclusive: 25.1 µM [inhibitor, partial curve, poor fit]
c1ccc2sc(-c3ccncc3)nc2c1	inconclusive: 31.6 µM [inhibitor, single point]
Cc1cccc(NC(=O)CSc2nc3ccc(NC(=O)c4ccccc4)cc3s2)c1	inconclusive: 31.6 µM [inhibitor, partial curve, poor fit]
CCOc1ccc(-c2cc3nc(C4CCN(C(=O)OC(C)(C)C)CC4)c(C(=O)Nc4cccc(CC)c4)cn3n2)cc1	inconclusive: 28.2 µM [inhibitor, partial curve, poor fit]
O=C(Nc1ccccc1-c1ccccc1)c1cc(F)c(F)cc1Cl	inactive
Cc1cc2ccccn2c1/C=C/C(=O)C(F)(F)F	inconclusive: 31.6 µM [inhibitor, partial curve, poor fit]
FC(F)(F)c1ccc2nc([C@H]3CCN(Cc4ccccn4)C3)[nH]c2c1	inconclusive: 31.6 µM [inhibitor, single point]
Cc1ccc(-c2cc(O)c3c(c2)CNCCO3)cc1	inconclusive: 31.6 µM [inhibitor, single point]
CC(=O)Nc1ccc(-c2csc(Nc3cc(C)ccc3C)n2)cc1	inactive
COCC(=O)NC1CCC12CCN(Cc1ccc(C)o1)CC2 (configuration not stated)	inconclusive: 7.08 µM [inhibitor, partial curve]
COCC1CN(C2CCC2)CC12CCN(C(=O)c1cccc(C)c1)CC2 (configuration not stated)	inconclusive: 3.16 µM [inhibitor, full curve]
O=C(NCCc1csc(-c2cccnc2)n1)c1cccc(Cl)c1	inconclusive: 31.6 µM [inhibitor, single point]
COCCN1C(=O)[C@@H]2C[C@@H](CN2C(C)C)Oc2ccccc21	inconclusive: 22.4 µM [inhibitor, partial curve, poor fit]
COc1nc2c(cc1CNC(=O)C1CCOCC1)C(=O)N(C1CCCC1)C2	inconclusive: 31.6 µM [inhibitor, partial curve, poor fit]
CN(Cc1ccc(N2CCCCC2)cc1)C(=O)c1ccc2c(c1)C(O)CCCCCN2C (configuration not stated)	inconclusive: 22.4 µM [inhibitor, partial curve, poor fit]
O=C1COc2ccc(-c3csc(NC4CCCCC4)n3)cc2N1	inactive
COc1ccc(-c2nnc(SCc3csc(Nc4ccccc4)n3)o2)cc1OC	inactive
Cc1cc(=O)oc2cc(OCC(=O)N/N=C/c3ccccc3O)ccc12	inconclusive: 25.1 µM [inhibitor, partial curve, poor fit]
Cc1cc(-c2cc3[nH]ccc3c(C(=O)NCc3c(C)cc(C)[nH]c3=O)n2)ccn1	active: 11.2 µM
COc1cccc(CNC(=O)c2cc(C3CC3)nc3onc(C)c23)c1	inactive

SMILES	Potency
Cc1ccc(C(=O)Nc2ccc(C(O)(C(F)(F)F)C(F)(F)F)cc2)cc1	inactive
CCN(CC)S(=O)(=O)c1ccc2c(c1)N(CC(=O)NCc1ccccc1)C(=O)C1CCCCN21 (configuration not stated)	inconclusive: 44.7 µM [inhibitor, single point]
Cc1cc2c(cc1S(=O)(=O)Nc1ccc(OC(F)(F)F)cc1)OCC(=O)N2	inconclusive: 22.4 µM [inhibitor, single point]
O=C(CN1CCN(c2ncccn2)CC1)N1N=C(c2cc3ccccc3o2)CC1c1ccco1 (configuration not stated)	inconclusive: 25.1 µM [inhibitor, single point]
CN1C(=O)c2cccn2CC1C(=O)NC1CCCCCC1 (configuration not stated)	inactive
Cc1ccc(-c2csc(-c3cc4c([nH]c3=O)CC(c3ccccc3)CC4=O)n2)cc1 (configuration not stated)	inconclusive: 7.08 µM [inhibitor, partial curve, poor fit]
CCC1CCCCN1C(=O)Cn1nc2cc(C)nc(N3CCc4ccccc4C3)n2c1=O (configuration not stated)	inactive
CC1=NN2C(=N)/C(=C\c3cc(C)n(-c4cccc(C)c4)c3C)C(=O)N=C2S1	inconclusive: 39.8 µM [inhibitor, partial curve, poor fit]
CCc1c(C)sc2nc(NCC(C)O)n3nc(-c4ccco4)nc3c12 (configuration not stated)	inconclusive: 25.1 µM [inhibitor, partial curve, poor fit]
COC(=O)c1c(COC(=O)c2ccc(N3CCCS3(=O)=O)cc2)nc2ccccc2c1C	inactive
CC(C)CNC(=O)c1cc2cn(C3CC3)cc2s1	inconclusive: 14.1 µM [inhibitor, partial curve]
Cc1cc(C)c2c(c1)C(=O)/C(=C\c1ccccc1C)CC2	inactive
Cc1ccnc(N/C=C/C(=O)c2ccc(Br)cc2)c1	inconclusive: 39.8 µM [inhibitor, single point]
CCC(=O)Oc1c(Sc2ccc(Cl)cc2)c(C)nn1-c1ccccc1	inconclusive: 15.8 µM [inhibitor, partial curve, poor fit]
O=C(NCCCN1CCN(c2cccc(Cl)c2)CC1)c1sc2ncccc2c1-n1cccc1	inconclusive: 28.2 µM [inhibitor, single point]
COc1ccc(NC(=O)N[C@H]2CO[C@H]3[C@@H]2OC[C@@H]3n2nnnc2-c2ccccc2)cc1	inconclusive: 35.5 µM [inhibitor, partial curve]
O=C(C1CCN(c2ncnc3c2sc2cccc(F)c23)CC1)N1CCCC1	inconclusive: 35.5 µM [inhibitor, partial curve, poor fit]
CC1=C(C#N)C(c2ccccc2C(F)(F)F)C(C#N)=C(C)N1	inactive
Cc1ccc(Nc2c(-c3ccc(Br)o3)nc3ccccn23)cc1	inconclusive: 28.2 µM [inhibitor, partial curve, poor fit]
Cc1cccc2nnc(N3CCN(C(=O)c4ccc(F)c(F)c4)CC3)n12	active: 28.2 µM
N#Cc1cccc(OCc2cccc3cccnc23)c1	inactive
O=C(Nc1ccccn1)c1cc(-c2cccs2)nc2ccccc12	inconclusive: 25.1 µM [inhibitor, partial curve, poor fit]
CCn1c(=O)c2cc(C(=O)NCCCN3CCN(C)CC3)sc2c2ccccc21	inconclusive: 28.2 µM [inhibitor, partial curve, poor fit]

SMILES	Potency
O=C(c1ccc2cc[nH]c2c1)N1CCN(C(=O)c2nnn3c2COC(c2ccccc2)C3)CC1 (configuration not stated)	inconclusive: 17.8 µM [inhibitor, partial curve]
CN1CCC2(C1)CN(Cc1ccccc1)c1ccc(C(=O)Nc3ccc(F)cc3)cc12 (configuration not stated)	inconclusive: 28.2 µM [inhibitor, partial curve, poor fit]
COc1ccc(N(C(=O)c2snc(C(N)=O)c2N)C(C(=O)NC2CCCC2)c2ccc3ncccc3c2)cc1 (configuration not stated)	inconclusive: 25.1 µM [inhibitor, single point]
COC(=O)[C@@H]1Cc2ncn(C)c2CN1S(=O)(=O)c1ccc(Cl)cc1	inconclusive: 35.5 µM [inhibitor, partial curve]
Cc1ccc(CNC(=O)Cn2c(N3CCN(c4ccccc4)CC3)nc(C)cc2=O)cc1	inactive
CC1CCN(c2oc(COc3ccc(F)cc3)nc2C#N)CC1	inactive
Cc1ccc(CN2CC(C(=O)N3CCc4c(nc5cc(-c6ccccc6)[nH]n5c4=O)C3)CC2=O)cc1 (configuration not stated)	active: 22.4 µM
CC1Oc2ccc(NC(=O)c3ccc(F)cc3)cc2CN(Cc2ccccc2Cl)C1=O (configuration not stated)	inconclusive: 39.8 µM [inhibitor, single point]
COc1ccc(-c2nc(C)nc3c2CCC3)c2ccc(C)nc12	active: 28.2 µM
CCc1[nH]c2ccc(CNC(=O)c3coc(CN4CCOCC4)c3)cc2c1C	inconclusive: 0.708 µM [inhibitor, single point]
COC(=O)C1(C(C[N+](=O)[O-])c2ccco2)C(=O)NCC1c1ccccc1 (configuration not stated)	inconclusive: 25.1 µM [inhibitor, partial curve, poor fit]
N#Cc1cccc(-c2cn3c(n2)N(C(=O)Cc2cccs2)CCC3)c1	active: 25.1 µM
O=C(NCc1ccccn1)C1(c2cccc(C(F)(F)F)c2)CCOCC1	inactive
COc1cccc2c(Nc3ccc(C)cc3)cc(C)nc12	inactive
CCCCn1cnc2cc(NCc3ccc(OCC)cc3)ccc21	inconclusive: 28.2 µM [inhibitor, partial curve, poor fit]
CC(=O)N1CCC([C@@H]2CN(Cc3ccc(C)s3)C[C@H]2CO)CC1	inconclusive: 17.8 µM [inhibitor, single point]
CCc1ccc(NC(=O)c2ccc3c(c2)N(C)C2CCCCN2C3=O)cc1 (configuration not stated)	inconclusive: 31.6 µM [inhibitor, partial curve, poor fit]
c1ccc(-c2nnc(CN3CCN(c4cnccn4)CC3)o2)cc1	inconclusive: 15.8 µM [inhibitor, partial curve, poor fit]
c1ccc(-c2nnc3ccc(-c4ccoc4)nn23)nc1	active: 31.6 µM
O=C(O)C(Cc1c[nH]c2ccccc12)NCc1ccccc1 (configuration not stated)	inconclusive: 28.2 µM [inhibitor, single point]
CCN1CCN(CCNC(=O)C2CCN(C(=O)N3CC4CC(C3)[C@H]3CCCC(=O)N3C4)CC2)CC1 (some centres not stated)	inactive
